# The other results are listed elsewhere or left out.
# Columns and labels:
# Assay in all cases: glycan array binding signal (z-score within array); higher = stronger binding
# Conditions in all cases: glycan notation: IUPAC condensed, linker removed
# [1] = molecular target: Neu5Ac(a2-3)Gal(b1-3)GalNAc
# In short: (§1)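 From the Consortium for Functional Glycomics database, 3228 arrays were curated, keeping only those whose protein sequence was available. Binding is given as a within-array Z-score averaged across arrays sharing a protein sequence and across linkers. Negative Z-scores can be read as non-binding.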
# [2] = molecular target: Neu5Ac(a2-3)Gal(b1-3)GalNAc(b1-3)Gal(a1-4)Gal(b1-4)Glc
# In short: as §1
# [3] = molecular target: Neu5Ac(a2-3)Gal(b1-3)GalNAc(b1-4)[Neu5Ac(a2-3)]Gal(b1-4)Glc
# In short: as §1
# [4] = molecular target: Neu5Ac(a2-3)Gal(b1-3)GalNAc(b1-4)[Neu5Ac(a2-8)Neu5Ac(a2-3)]Gal(b1-4)Glc
# In short: as §1
# [5] = molecular target: Neu5Ac(a2-3)Gal(b1-3)GalNAc6S
# In short: as §1
# [6] = molecular target: Neu5Ac(a2-3)Gal(b1-3)GlcNAc
# In short: as §1
# [7] = molecular target: Neu5Ac(a2-3)Gal(b1-3)GlcNAc(b1-2)Man
# In short: as §1
# [8] = molecular target: Neu5Ac(a2-3)Gal(b1-3)GlcNAc(b1-2)Man(a1-3)[GlcNAc(b1-4)][Neu5Ac(a2-3)Gal(b1-3)GlcNAc(b1-2)Man(a1-6)]Man(b1-4)GlcNAc(b1-4)GlcNAc
# In short: as §1
# [9] = molecular target: Neu5Ac(a2-3)Gal(b1-3)GlcNAc(b1-2)Man(a1-3)[Neu5Ac(a2-3)Gal(b1-3)GlcNAc(b1-2)Man(a1-6)]Man(b1-4)GlcNAc(b1-4)GlcNAc
# In short: as §1
# [10] = molecular target: Neu5Ac(a2-3)Gal(b1-3)GlcNAc(b1-3)Gal(b1-3)GlcNAc
# In short: as §1
# [11] = molecular target: Neu5Ac(a2-3)Gal(b1-3)GlcNAc(b1-3)Gal(b1-4)GlcNAc
# In short: as §1
# [12] = molecular target: Neu5Ac(a2-3)Gal(b1-3)GlcNAc(b1-3)GalNAc
# In short: as §1
# [13] = molecular target: Neu5Ac(a2-3)Gal(b1-3)GlcNAc(b1-4)Gal(b1-4)Glc
# In short: as §1
# [14] = molecular target: Neu5Ac(a2-3)Gal(b1-3)GlcNAc(b1-6)GalNAc
# In short: as §1
# [15] = molecular target: Neu5Ac(a2-3)Gal(b1-3)GlcNAc6S
# In short: as §1
# [16] = molecular target: Neu5Ac(a2-3)Gal(b1-3)[Fuc(a1-4)]GlcNAc
# In short: as §1
# [17] = molecular target: Neu5Ac(a2-3)Gal(b1-3)[Fuc(a1-4)]GlcNAc(b1-3)Gal(b1-3)[Fuc(a1-4)]GlcNAc
# In short: as §1
# [18] = molecular target: Neu5Ac(a2-3)Gal(b1-3)[Fuc(a1-4)]GlcNAc(b1-3)Gal(b1-4)[Fuc(a1-3)]GlcNAc
# In short: as §1
# [19] = molecular target: Neu5Ac(a2-3)Gal(b1-3)[GlcNAc(b1-6)]GalNAc
# In short: as §1
# [20] = molecular target: Neu5Ac(a2-3)Gal(b1-3)[Neu5Ac(a2-6)]GalNAc
# In short: as §1
# [21] = molecular target: Neu5Ac(a2-3)Gal(b1-3)[Neu5Ac(a2-6)]GlcNAc(b1-3)[Fuc(a1-3)[Gal(b1-4)]GlcNAc(b1-6)]Gal(b1-4)Glc
# In short: as §1
# [22] = molecular target: Neu5Ac(a2-3)Gal(b1-3)]Neu5Ac(a2-3)Gal(b1-4)]GlcNAc
# In short: as §1
# Neu5Ac(a2-3)Gal(b1-4)Glc = molecular target: Neu5Ac(a2-3)Gal(b1-4)Glc
# In short: as §1
# [23] = molecular target: Neu5Ac(a2-3)Gal(b1-4)GlcNAc
# In short: as §1
# [24] = molecular target: Neu5Ac(a2-3)Gal(b1-4)GlcNAc(b1-2)Man
# In short: as §1
# [25] = molecular target: Neu5Ac(a2-3)Gal(b1-4)GlcNAc(b1-2)Man(a1-3)[GlcNAc(b1-4)][Neu5Ac(a2-3)Gal(b1-4)GlcNAc(b1-2)Man(a1-6)]Man(b1-4)GlcNAc(b1-4)GlcNAc
# In short: as §1
# [26] = molecular target: Neu5Ac(a2-3)Gal(b1-4)GlcNAc(b1-2)Man(a1-3)[Neu5Ac(a2-3)Gal(b1-4)GlcNAc(b1-2)Man(a1-6)]Man(b1-4)GlcNAc(b1-4)GlcNAc
# In short: as §1
# [27] = molecular target: Neu5Ac(a2-3)Gal(b1-4)GlcNAc(b1-2)Man(a1-3)[Neu5Ac(a2-3)Gal(b1-4)GlcNAc(b1-2)Man(a1-6)]Man(b1-4)GlcNAc(b1-4)[Fuc(a1-6)]GlcNAc
# In short: as §1
# [28] = molecular target: Neu5Ac(a2-3)Gal(b1-4)GlcNAc(b1-2)Man(a1-3)[Neu5Ac(a2-6)Gal(b1-4)GlcNAc(b1-2)Man(a1-6)]Man(b1-4)GlcNAc(b1-4)GlcNAc
# In short: as §1
# [29] = molecular target: Neu5Ac(a2-3)Gal(b1-4)GlcNAc(b1-2)[Neu5Ac(a2-3)Gal(b1-4)GlcNAc(b1-4)]Man(a1-3)[GlcNAc(b1-4)][Neu5Ac(a2-3)Gal(b1-4)GlcNAc(b1-2)[Neu5Ac(a2-3)Gal(b1-4)GlcNAc(b1-6)]Man(a1-6)]Man(b1-4)GlcNAc(b1-4)GlcNAc
# In short: as §1
# [30] = molecular target: Neu5Ac(a2-3)Gal(b1-4)GlcNAc(b1-2)[Neu5Ac(a2-3)Gal(b1-4)GlcNAc(b1-4)]Man(a1-3)[GlcNAc(b1-4)][Neu5Ac(a2-3)Gal(b1-4)GlcNAc(b1-4)Man(a1-6)]Man(b1-4)GlcNAc(b1-4)GlcNAc
# In short: as §1
# [31] = molecular target: Neu5Ac(a2-3)Gal(b1-4)GlcNAc(b1-2)[Neu5Ac(a2-3)Gal(b1-4)GlcNAc(b1-6)]Man(a1-6)[Neu5Ac(a2-3)Gal(b1-4)GlcNAc(b1-2)Man(a1-3)]Man(b1-4)GlcNAc(b1-4)GlcNAc
# In short: as §1
# [32] = molecular target: Neu5Ac(a2-3)Gal(b1-4)GlcNAc(b1-2)[Neu5Ac(a2-3)Gal(b1-4)GlcNAc(b1-6)]Man(a1-6)[Neu5Ac(a2-3)Gal(b1-4)GlcNAc(b1-2)Man(a1-3)][GlcNAc(b1-4)]Man(b1-4)GlcNAc(b1-4)GlcNAc
# In short: as §1
# [33] = molecular target: Neu5Ac(a2-3)Gal(b1-4)GlcNAc(b1-3)Gal
# In short: as §1
# [34] = molecular target: Neu5Ac(a2-3)Gal(b1-4)GlcNAc(b1-3)Gal(b1-3)GlcNAc
# In short: as §1
# [35] = molecular target: Neu5Ac(a2-3)Gal(b1-4)GlcNAc(b1-3)Gal(b1-4)GlcNAc
# In short: as §1
# [36] = molecular target: Neu5Ac(a2-3)Gal(b1-4)GlcNAc(b1-3)Gal(b1-4)GlcNAc(b1-2)Man(a1-3)[Neu5Ac(a2-3)Gal(b1-4)GlcNAc(b1-3)Gal(b1-4)GlcNAc(b1-2)Man(a1-6)]Man(b1-4)GlcNAc(b1-4)GlcNAc
# In short: as §1
binder,measurement,setting,value
Clone730PsrP (Streptococcus pneumoniae) (protein) MDHHHHHHHHHHASENLYFQGAMVVGSQTAAATEATAKKVEEDRKKPASDYVASVTNVNLQSYAKRRKRSVDSIEQLLASIKNAAVFSGNTIVNGAPAINASLNIAKSETKVYTGEGVDSVYRVPIYYKLKVTNDGSKLTFTYTVTYVNPKTNDLGNISSMRPGYSIYNSGTSTQTMLTLGSDLGKPSGVKNYITDKNGRQVLSYNTSTMTTQGSGYTWGNGAQMNGFFAKKGYGLTSSWTVPITGTDTSFTFTPYAARTDRIGINYFNGGGKVVESSTT,glycan array binding signal (z-score),[1],-0.474
same,glycan array binding signal (z-score),[2],-0.298
same,glycan array binding signal (z-score),[3],0.175
same,glycan array binding signal (z-score),[4],-0.389
same,glycan array binding signal (z-score),[5],-0.288
same,glycan array binding signal (z-score),[6],-0.231
same,glycan array binding signal (z-score),[7],1.14
same,glycan array binding signal (z-score),[8],-0.581
same,glycan array binding signal (z-score),[9],0.657
same,glycan array binding signal (z-score),[10],-0.479
same,glycan array binding signal (z-score),[11],-0.591
same,glycan array binding signal (z-score),[12],-0.389
same,glycan array binding signal (z-score),[13],-0.33
same,glycan array binding signal (z-score),[14],-0.281
same,glycan array binding signal (z-score),[15],0.799
same,glycan array binding signal (z-score),[16],0.489
same,glycan array binding signal (z-score),[17],-0.212
same,glycan array binding signal (z-score),[18],0.277
same,glycan array binding signal (z-score),[19],-0.134
same,glycan array binding signal (z-score),[20],-0.191
same,glycan array binding signal (z-score),[21],-0.372
same,glycan array binding signal (z-score),[22],0.45
same,glycan array binding signal (z-score),Neu5Ac(a2-3)Gal(b1-4)Glc,1.09
same,glycan array binding signal (z-score),[23],0.638
same,glycan array binding signal (z-score),[24],1.83
same,glycan array binding signal (z-score),[25],-0.507
same,glycan array binding signal (z-score),[26],-0.336
same,glycan array binding signal (z-score),[27],-0.658
same,glycan array binding signal (z-score),[28],-0.561
same,glycan array binding signal (z-score),[29],-0.404
same,glycan array binding signal (z-score),[30],-0.589
same,glycan array binding signal (z-score),[31],-0.261
same,glycan array binding signal (z-score),[32],-0.522
same,glycan array binding signal (z-score),[33],-0.586
same,glycan array binding signal (z-score),[34],-0.639
same,glycan array binding signal (z-score),[35],0.696
same,glycan array binding signal (z-score),[36],-0.173

# From the supplement of paper PMC8728848
